The values that follow come from PubChem BioAssay AID485344 (National Center for Advancing Translational Sciences (NCATS), 2010).

The whole screen tested about 340,000 compounds, of which about 6,900 (2%) were called active. Rule as the data show it: active = inhibition above about 30%; inactive = below that, where a call was filed. The entries are a selection whose mix differs from that of the whole data set. Entries without a call were filed so in the source.

One may read the inhibition as the drop in the measured response relative to a control, in per cent.

This assay deals with D(2) dopamine receptor (Homo sapiens) (UniProt P14416). The assay is described as follows: HTS Assay for Allosteric Antagonists of the Human D2 Dopamine Receptor: Primary Screen for Antagonists. Also: 0% is about no effect. The settings on record: HEK293 TREx D2 cells, calcium flux, dopamine EC80; at 10 µM; stronger effect = higher value. A digest of the protocol: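 Dopamine at EC80 is the agonist stimulus; test compounds precede it by 180 s. Calcium flux read kinetically in a force-coupled, inducible HEK293 T-REx D2 cell line.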
UniProt P14416, sequence (P14416 whole entry, looked up): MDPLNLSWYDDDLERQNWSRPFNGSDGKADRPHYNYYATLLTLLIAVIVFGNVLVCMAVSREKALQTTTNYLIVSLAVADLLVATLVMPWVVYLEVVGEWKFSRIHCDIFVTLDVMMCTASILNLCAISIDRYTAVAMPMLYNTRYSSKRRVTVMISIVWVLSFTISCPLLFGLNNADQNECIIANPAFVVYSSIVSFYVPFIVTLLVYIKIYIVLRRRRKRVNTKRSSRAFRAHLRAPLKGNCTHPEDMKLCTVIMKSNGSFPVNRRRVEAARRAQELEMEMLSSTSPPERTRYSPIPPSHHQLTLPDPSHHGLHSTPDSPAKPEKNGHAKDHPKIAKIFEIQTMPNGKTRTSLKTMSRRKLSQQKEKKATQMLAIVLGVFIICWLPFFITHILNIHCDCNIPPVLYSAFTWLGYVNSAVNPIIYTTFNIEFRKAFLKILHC
(Calcium assays in cells follow changes in intracellular calcium, usually with a dye or a luminescent sensor.)
Turning to `COc1ccc(-n2c(=O)c3c4c(sc3n(CC(=O)N3CCCCC3C)c2=O)CCC4)c(OC)c1` (configuration not stated), the inhibition stood at 3.48%.
With `Cc1cc(C)cc(OCC(O)CN2CCN(C(=O)c3ccco3)CC2)c1` (configuration not stated) the figure was active: 34.6%.
With `COc1ccccc1N1CCN(S(=O)(=O)c2c(C)sc3ncn(CC(=O)Nc4ccc(C(C)C)cc4)c(=O)c23)CC1` the figure was 1.94%.
As for `Cc1ccc(N2CCN(C(=O)c3ccc(Nc4nc5ccccc5n5nnnc45)cc3)CC2)c(C)c1`, the figure is -3.05%.
Take `Cc1ccc(C(=O)NNC2=Nc3cccc4cccc2c34)cc1`: the inhibition is active: 70.8%.
Take `CC1CCN(CCCNC(=O)CN2C(=O)CSc3ccc(S(=O)(=O)N4CCC(C)CC4)cc32)CC1`: the inhibition came to 18%.
In the case of `CN(C)c1ccc(NC(=O)CSc2nc(-c3ccco3)cc(C(F)(F)F)n2)cc1`, the inhibition was -5.64%.
On to `Cc1ccc(OCC(=O)c2c(N)n(C)c(=O)n(C)c2=O)c([N+](=O)[O-])n1`, for which the inhibition was active: 32.9%.
With `Cc1ccccc1C(=O)Oc1cc(-c2ccc3c(c2)OCO3)cc(=O)c2c(C)oc(C)c12`, the inhibition came to 3.2%.
On to `O=C(COc1ccccc1Cl)N(Cc1ccco1)Cc1ccco1`, for which the inhibition is -4.08%.
Take `CN(C)CCOCCOc1ccc(Cl)cc1C(C)(C)C`: the inhibition was active: 64%.
Regarding `COC(=O)c1ccccc1NC(=O)COCc1cc(-c2cccs2)on1`, the inhibition is -20.1%.
For the molecule `Cc1ccc(CNc2nc3c(c(=O)n(C)c(=O)n3C)n2Cc2ccc(Cl)cc2)cc1`, the inhibition is 26.5%.
For the molecule `Cc1ccc(CN(C(=O)c2ccc(F)cc2)c2ccccn2)o1`, the inhibition turned out to be 3.42%.
Take `Cc1cc(C)cc(-c2nnc(SCC(=O)Nc3cc(C)on3)o2)c1`: the inhibition is active: 36.3%.
In the case of `COc1ccc(C)cc1S(=O)(=O)Nc1ccc(F)c(Cl)c1`, the inhibition was active: 32%.
As for `CCOC(=O)c1[nH]c2ccccc2c1NC(=O)c1cc(OC)cc(OC)c1`, the figure is -3.81%; as for `COc1cccc(-c2ccnc3c(-c4ccccc4)c(C)nn23)c1`, -3.96%.
As for `CCOc1ccc(NC(=O)N2CCC(CN3CCC(C)CC3)CC2)cc1`, the figure is 4.74%.
Regarding `COc1ccc(-c2[nH]ncc2/C=N/NC(=O)c2ccc(Br)cc2)c(OC)c1`, the inhibition was active: 48.3%.
With `COc1ccc(-c2cc(C(=O)NCCc3ccc(Cl)cc3)[nH]n2)cc1`, the inhibition was found to be 0.239%.
As for `Cc1cc(OCCN2CCOCC2)ccc1Cl`, the inhibition was active: 46.5%.
As for `Cc1cccc(N2CCN(C(=O)COCc3cc(-c4ccc5c(c4)OCO5)on3)CC2)c1C`, the inhibition is 13.8%.
As for `COc1ccc(C2=C(C)C(N3CCC(C(=O)NCc4ccco4)CC3)=NS2(=O)=O)cc1`, the figure is -18.2%.
As for `Cc1ccc(CNS(=O)(=O)c2cc(C(=O)Nc3ccc(C(C)C)cc3)ccc2F)cc1`, the inhibition stood at 6.94%.
Regarding `Cc1ccc(CNC(=O)CSCc2nc(-c3ccc(Cl)cc3)oc2C)cc1`, the inhibition was found to be 21.6%.
As for `CCc1ccccc1NC(=O)Cn1cc(C(=O)c2ccc(Cl)cc2)c(=O)c2ccc(C)nc21`, the inhibition was found to be 6.43%.
